# From patent US20230009608A1, “GRK2 INHIBITORS AND USES THEREOF” (Cygnal Therapeutics, Inc., priority 2020, published 2023)
# At least one read-out could not be matched to a standard name with certainty.
# Tested on: PAXF1657 control empty vector cell line
# Experiment: 7-day proliferation assay, PAXF1657 control empty vector cell line (Example 9)
# Type: cell-based
# Conditions: Cell Line: PAXF1657 empty vector (EV) cell line
# How it was run: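 PAXF1657 pancreatic cancer cells (GRK2-overexpressing vs empty vector; CRISPR GRK2 knockout vs non-targeting control) were seeded at 500 cells/well in RPMI1640/10% FBS, then given a 10-point series, 30 μM-0.0002 μM in 0.3% DMSO. Medium and compound were refreshed after 3 days; CellTiter-Glo luminescence was read at day 7.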
row,Compound,D: 7-day proliferation assay: % Minimum GeoMean (%)
1,Cc1ccnc(CNC(=O)c2cccc(NCc3nnc(-c4ccncn4)n3C)c2)c1,45.5
2,Cn1c(CNc2cccc(C(=O)NCc3cccnc3)c2)nnc1-c1ccncn1,87.2
3,C[C@H](NC(=O)c1cccc(NCc2nnc(-c3ccncn3)n2C)c1)c1cncc(F)c1,41.4
4,CC(NC(=O)c1cccc(NCc2nnc(-c3ccncn3)n2C)c1)c1cnn(C)c1 (stereo not shown),47.6
5,Cn1c(CNc2cccc(C(=O)NCc3cccc4ncccc34)c2)nnc1-c1ccncn1,71.1
6,Cn1c(CNc2cccc(C(=O)NCc3cn[nH]c3)c2)nnc1-c1ccncn1,76.5
7,Cc1nn(C)c(C)c1CNC(=O)c1cccc(NCc2nnc(-c3ccncn3)n2C)c1,54.1
8,Cc1noc(C)c1CNC(=O)c1cccc(NCc2nnc(-c3ccncn3)n2C)c1,62.5
9,COc1cnccc1C(C)NC(=O)c1cccc(NCc2nnc(-c3ccncc3)[nH]2)c1 (stereo not shown),61.7
10,CCn1nccc1C(C)NC(=O)c1cccc(NCc2nnc(-c3ccncc3)[nH]2)c1 (stereo not shown),84.6
11,CN1CCC(CNC(=O)c2cccc(NCc3nnc(-c4ccncc4)[nH]3)c2)C1=O (stereo not shown),102
12,O=C(NCc1nnc2n1CCCC2C(F)(F)F)c1cccc(NCc2nnc(-c3ccncc3)[nH]2)c1 (stereo not shown),74.9
13,O=C(NCC1CC1(F)F)c1cccc(NCc2nnc(-c3ccncc3)[nH]2)c1 (stereo not shown),51.6
14,COC[C@H](NC(=O)c1cccc(NCc2nnc(-c3ccncc3)[nH]2)c1)c1cccnc1,38
15,C[C@H](NC(=O)c1cccc(NCc2nnc(-c3ccncc3)[nH]2)c1)c1ccnn1C,65.9
16,O=C(NCc1nnc2n1CCCC2)c1cccc(NCc2nnc(-c3ccncc3)[nH]2)c1,74.9
17,Cc1nn(C)c(C)c1CNC(=O)c1cccc(NCc2nnc(-c3ccncc3)[nH]2)c1,43.6
18,O=C(NCc1cccnc1-n1ccnc1)c1cccc(NCc2nnc(-c3ccncc3)[nH]2)c1,95.9
19,Cc1nnc(CNC(=O)c2cccc(NCc3nnc(-c4ccncc4)[nH]3)c2)n1C,96.6
20,O=C(NCc1ccncc1)c1cccc(NCc2nnc(-c3ccncc3)[nH]2)c1,50.5
21,C[C@H](NC(=O)c1cccc(NCc2nnc(-c3ccncc3)[nH]2)c1)c1cnnn1C,71.4
22,CCc1nc(CNC(=O)c2cccc(NCc3nnc(-c4ccncc4)[nH]3)c2)c(C)o1,39.2
23,COCCn1nc(C)c(CNC(=O)c2cccc(NCc3nnc(-c4ccncc4)[nH]3)c2)c1C,71.6
24,O=C(NCc1ncccn1)c1cccc(NCc2nnc(-c3ccncc3)[nH]2)c1,64.2
25,Cc1n[nH]cc1CNC(=O)c1cccc(NCc2nnc(-c3ccncc3)[nH]2)c1,67.5
26,O=C(NCc1ncco1)c1cccc(NCc2nnc(-c3ccncc3)[nH]2)c1,103
27,CCn1nc(C)c(CNC(=O)c2cccc(NCc3nnc(-c4ccncc4)[nH]3)c2)n1,55.7

row,Compound,D: 7-day proliferation assay: % Minimum GeoMean (%)
1,O=C(NCc1nncn1C1CC1)c1cccc(NCc2nnc(-c3ccncc3)[nH]2)c1,79.1
2,COC[C@H](NC(=O)c1cccc(NCc2nnc(-c3ccncc3)[nH]2)c1)c1ccccn1,63.4
3,Cn1cnnc1CNC(=O)c1cccc(NCc2nnc(-c3ccncc3)[nH]2)c1,91.4
4,Cc1nnc(CNC(=O)c2cccc(NCc3nnc(-c4ccncc4)[nH]3)c2)n1C1CC1,94.4
5,Cn1ncnc1CNC(=O)c1cccc(NCc2nnc(-c3ccncc3)[nH]2)c1,78.7
6,CCn1cnnc1CNC(=O)c1cccc(NCc2nnc(-c3ccncc3)[nH]2)c1,68.9
7,CCn1nccc1CNC(=O)c1cccc(NCc2nnc(-c3ccncc3)[nH]2)c1,71.1
8,CCn1ncnc1CNC(=O)c1cccc(NCc2nnc(-c3ccncc3)[nH]2)c1,129
9,O=C(NCc1cncc(F)c1)c1cccc(NCc2nnc(-c3ccncc3)[nH]2)c1,98.5
10,O=C(NCc1ccncn1)c1cccc(NCc2nnc(-c3ccncc3)[nH]2)c1,129
11,O=C(NCc1cncnc1)c1cccc(NCc2nnc(-c3ccncc3)[nH]2)c1,120
12,Cc1noc(C)c1CNC(=O)c1cccc(NCc2nnc(-c3ccncc3)[nH]2)c1,98.9
13,CC(C)n1cnnc1CNC(=O)c1cccc(NCc2nnc(-c3ccncc3)[nH]2)c1,88.7
14,O=C(NCc1cccnn1)c1cccc(NCc2nnc(-c3ccncc3)[nH]2)c1,116
15,COCCn1cc(C(C)NC(=O)c2cccc(NCc3nnc(-c4ccncc4)[nH]3)c2)cn1 (stereo not shown),101
16,CC(NC(=O)c1cccc(NCc2nnc(-c3ccncc3)[nH]2)c1)c1ccon1 (stereo not shown),66.9
17,CC(NC(=O)c1cccc(NCc2nnc(-c3ccncc3)[nH]2)c1)c1ncnn1C (stereo not shown),85
18,CN(C)CCC(NC(=O)c1cccc(NCc2nnc(-c3ccncc3)[nH]2)c1)c1ccccc1 (stereo not shown),83.1
19,CC(NC(=O)c1cccc(NCc2nnc(-c3ccncc3)[nH]2)c1)c1cn[nH]c1 (stereo not shown),71.8
20,CC1CC(NC(=O)c2cccc(NCc3nnc(-c4ccncc4)[nH]3)c2)c2ncnn21 (stereo not shown),105
21,O=C(NC1CCCn2ncnc21)c1cccc(NCc2nnc(-c3ccncc3)[nH]2)c1 (stereo not shown),83.1
22,O=C(NC1CCCc2nccnc21)c1cccc(NCc2nnc(-c3ccncc3)[nH]2)c1 (stereo not shown),24.3
23,CC(NC(=O)c1cccc(NCc2nnc(-c3ccncc3)[nH]2)c1)c1ncn(C)n1 (stereo not shown),86.7
24,CN(C)CCC(NC(=O)c1cccc(NCc2nnc(-c3ccncc3)[nH]2)c1)c1cccnc1 (stereo not shown),82.1
25,CC(NC(=O)c1cccc(NCc2nnc(-c3ccncc3)[nH]2)c1)c1nncn1C (stereo not shown),78.6
26,O=C(NC(CO)c1ccccn1)c1cccc(NCc2nnc(-c3ccncc3)[nH]2)c1 (stereo not shown),78.5
27,Cc1ocnc1CNC(=O)c1cccc(NCc2nnc(-c3ccncc3)[nH]2)c1,51.9

row,Compound,D: 7-day proliferation assay: % Minimum GeoMean (%)
1,O=C(NCc1cnccn1)c1cccc(NCc2nnc(-c3ccncc3)[nH]2)c1,100
2,COc1ncccc1CNC(=O)c1cccc(NCc2nnc(-c3ccncc3)n2C)c1,54.2
3,O=C(NCc1cccc2c1OCC2)c1cccc(NCc2nnc(-c3ccncc3)[nH]2)c1,7.94
4,O=C(NCc1cccc(F)c1)c1cccc(NCc2nnc(-c3ccncc3)[nH]2)c1,8.49
5,O=C(N[C@H]1CCOc2ccccc21)c1cccc(NCc2nnc(-c3ccncc3)[nH]2)c1,1.5
6,O=C(NCc1cccnc1C(F)(F)F)c1cccc(NCc2nnc(-c3ccncc3)[nH]2)c1,22.6
7,COc1ccc(CNC(=O)c2cccc(NCc3nnc(-c4ccncc4)[nH]3)c2)c(F)c1,14.6
8,COc1cccc(OC)c1CNC(=O)c1cccc(NCc2nnc(-c3ccncc3)[nH]2)c1,15.3
9,CCOc1ccccc1CNC(=O)c1cccc(NCc2nnc(-c3ccncc3)[nH]2)c1,17.7
10,CCCn1c(CNc2cccc(C(=O)NCc3cccc4c3OCC4)c2)nnc1-c1ccncn1,25
11,CCCn1c(CNc2cccc(C(=O)NCc3cccc(F)c3)c2)nnc1-c1ccncn1,27.9
12,CCCn1c(CNc2cccc(C(=O)N[C@H]3CCOc4ccccc43)c2)nnc1-c1ccncn1,17.5
13,CCCn1c(CNc2cccc(C(=O)NCc3cccnc3C(F)(F)F)c2)nnc1-c1ccncn1,37.8
14,CCCn1c(CNc2cccc(C(=O)NCc3ccc(OC)cc3F)c2)nnc1-c1ccncn1,54.1
15,CCCn1c(CNc2cccc(C(=O)NCc3c(OC)cccc3OC)c2)nnc1-c1ccncn1,69.8
16,CCCn1c(CNc2cccc(C(=O)NCc3ccccc3OCC)c2)nnc1-c1ccncn1,24.2
17,CCCn1c(CNc2cccc(C(=O)NC3(c4ccccc4)CCOCC3)c2)nnc1-c1ccncn1,13.2
18,CCCn1c(CNc2cccc(C(=O)NCc3cccnc3OC)c2)nnc1-c1ccncn1,68.7
19,O=C(NCc1cccc2c1OCC2)c1cccc(NCc2nnc3n2CCOc2cnccc2-3)c1,12.3
20,O=C(NCc1cccc(F)c1)c1cccc(NCc2nnc3n2CCOc2cnccc2-3)c1,23.8
21,O=C(N[C@H]1CCOc2ccccc21)c1cccc(NCc2nnc3n2CCOc2cnccc2-3)c1,16.4
22,O=C(NCc1cccnc1C(F)(F)F)c1cccc(NCc2nnc3n2CCOc2cnccc2-3)c1,16.3
23,COc1ccc(CNC(=O)c2cccc(NCc3nnc4n3CCOc3cnccc3-4)c2)c(F)c1,25.9
24,COc1cccc(OC)c1CNC(=O)c1cccc(NCc2nnc3n2CCOc2cnccc2-3)c1,73.7
25,CCOc1ccccc1CNC(=O)c1cccc(NCc2nnc3n2CCOc2cnccc2-3)c1,10.7
